Test [1] concerns the target T1, LASP1 (LIM and SH3 protein 1), endogenous nuclear (human (endogenous in MDA-Bone-Un)) (UniProt Q14847).
T1 sequence: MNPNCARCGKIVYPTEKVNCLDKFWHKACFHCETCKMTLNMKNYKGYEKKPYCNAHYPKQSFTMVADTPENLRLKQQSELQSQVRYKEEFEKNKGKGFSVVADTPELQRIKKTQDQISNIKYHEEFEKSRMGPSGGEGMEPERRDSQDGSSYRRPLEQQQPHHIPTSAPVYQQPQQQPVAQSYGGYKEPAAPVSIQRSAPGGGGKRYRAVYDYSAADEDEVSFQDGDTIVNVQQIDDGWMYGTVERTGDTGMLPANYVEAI
Nature of the test: condition: only cells pre-incubated with the CXCR4 antagonist AMD3465 before CXCL12; co-IP; as a3, but cells pre-incubated with the CXCR4 antagonist AMD-3465 for 30 min before CXCL12.

Chains of the proteins cited; added tags and fusions are not shown.
UniProt P49841: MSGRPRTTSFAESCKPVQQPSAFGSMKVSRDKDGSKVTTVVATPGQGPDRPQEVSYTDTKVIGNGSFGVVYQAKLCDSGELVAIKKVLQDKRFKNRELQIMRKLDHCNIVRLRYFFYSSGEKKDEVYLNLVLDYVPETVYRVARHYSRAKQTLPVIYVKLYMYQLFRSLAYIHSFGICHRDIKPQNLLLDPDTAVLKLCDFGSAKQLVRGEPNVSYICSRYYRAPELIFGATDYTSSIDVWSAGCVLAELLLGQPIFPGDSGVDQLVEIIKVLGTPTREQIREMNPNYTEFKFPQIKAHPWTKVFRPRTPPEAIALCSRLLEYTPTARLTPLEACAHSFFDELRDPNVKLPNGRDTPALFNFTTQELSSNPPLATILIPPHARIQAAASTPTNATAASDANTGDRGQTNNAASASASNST
UniProt O95863: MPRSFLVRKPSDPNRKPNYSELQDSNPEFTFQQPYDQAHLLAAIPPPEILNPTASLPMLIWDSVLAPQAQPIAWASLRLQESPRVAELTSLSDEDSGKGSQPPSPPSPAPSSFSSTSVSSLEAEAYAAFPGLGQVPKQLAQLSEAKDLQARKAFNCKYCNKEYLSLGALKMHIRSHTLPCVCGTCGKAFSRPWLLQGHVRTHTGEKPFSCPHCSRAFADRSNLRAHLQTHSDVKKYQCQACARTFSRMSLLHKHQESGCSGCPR

Test [2] concerns the target T1, LASP1 (LIM and SH3 protein 1), endogenous nuclear (human (endogenous in MDA-Bone-Un)). Briefly: co-IP; endogenous LASP1 immunoprecipitated with mouse anti-LASP1 (8C6) from 250 µg nuclear extract of serum-starved MDA-Bone-Un cells stimulated with 20 nM CXCL12 for 20 min; immunoblot. A general note: In western blotting, separated proteins are transferred to a membrane and probed.

For test [3], the target named is T2, GST-LASP1 S146D (full length, phosphomimetic) (human) (UniProt Q14847).
T2 sequence: T1 sequence with S146D
Briefly: pull-down; 1.5 nmol GST fusion on glutathione beads incubated overnight at 4 °C with 250 µg nuclear lysate of serum-starved, CXCL12-stimulated (20 nM) MDA-Bone-Un cells; 50 mM Tris-HCl pH 7.5, 0.05% Triton X-100, 100 mM NaCl; immunoblot of endogenous proteins; only the target purified.

Test [4] deals with T3, GST-LASP1 (full length, wild type) (human) (UniProt Q14847).
T3 sequence: T1 sequence
Briefly: pull-down; 1.5 nmol GST fusion on glutathione beads incubated overnight at 4 °C with 200 µg nuclear lysate of 293-CXCR4 cells transiently expressing Flag-Snail1-WT and stimulated with 20 nM CXCL12; 50 mM Tris-HCl pH 7.5, 0.05% Triton X-100, 100 mM NaCl; immunoblot; only the target purified.

Test [5] deals with T4, GST-SH3 (C-terminal domain of LASP1) (human) (UniProt Q14847).
T4 sequence: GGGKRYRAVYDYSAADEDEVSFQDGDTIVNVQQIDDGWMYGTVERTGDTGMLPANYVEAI
The test is described as above.

Test [6] has as its target T3, GST-LASP1 (full length, wild type) (human). Nature of the test: pull-down; 1.5 nmol GST fusion on glutathione beads incubated overnight at 4 °C with 250 µg nuclear lysate of serum-starved, CXCL12-stimulated (20 nM) MDA-Bone-Un cells; 50 mM Tris-HCl pH 7.5, 0.05% Triton X-100, 100 mM NaCl; immunoblot of endogenous proteins; only the target purified.
The target of test [7] is T5, GST-LASP1 Y171D (full length, phosphomimetic) (human) (UniProt Q14847).
T5 sequence: T1 sequence with Y171D
Described as above.

Test [8] concerns the target T6, GST-LASP1 Y171F (full length, phosphonull) (human) (UniProt Q14847).
T6 sequence: T1 sequence with Y171F
The test is described as above.

Test [9] addresses T7, GST-LASP1 S146A (full length, phosphonull) (human) (UniProt Q14847).
T7 sequence: T1 sequence with S146A
The test is described as above.

Residue numbers refer to the chain shown, from its start. No constants are given. Whether binding was seen depends on the method and setting. Binding seen in cells or lysates may run through a third protein. Some results given as binding are weak or reduced against the parent protein; the word gives no strength. For part of these data: Tags and fused reporters may be left off the sequences shown.

Regarding “GSK-3β (Glycogen synthase kinase-3β), endogenous (from UniProt P49841 1-420)”, the results for the binding entry in [1], in [2] and in test [3] were “no binding”, “binds” and “no binding”, respectively.
As to “Flag-Snail1-WT (from UniProt O95863 1-264)”, the binding result in [4] and in [5] was “binds” each time.
With “Snail1 (Snail family transcriptional repressor), endogenous (from UniProt O95863 1-264)”, the binding entry in test [1] is listed as “no binding”; in test [2] it was “binds”; in test [3], “binds”; in test [6], “binds”; in test [7], “binds”; in test [8], “binds”. The binding result in [9] is reported as “binds”.

For the origin of these results see paper PMC7563118.
